The supplement of paper PMC4604168 (melanoma cell lines)
Some of the results follow. Many values rest on one well or one pass, so single values are uncertain.

Tests used:
Assay in all cases: cell count relative to DMSO control; melanoma cells; higher = more viable cells
Conditions in all cases: library dose: low library concentration; 72 h; first compound 0.4 µM
MZ2-MEL = test system: MZ2-MEL
MeWo = test system: MeWo
RPMI7951 = test system: RPMI7951
RVH-421 = test system: RVH-421
SkMel28 = test system: SkMel28
SkMel2 = test system: SkMel2
SkMel30 = test system: SkMel30
SkMel5 = test system: SkMel5
UACC257 = test system: UACC257
UACC62 = test system: UACC62
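Also: cell number obtained by counting DAPI-stained nuclei in high-throughput microscope images with image analysis software, screen run in 1,536-well plates.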

| Compound | cell count (MZ2-MEL) [%] | cell count (MeWo) [%] | cell count (RPMI7951) [%] | cell count (RVH-421) [%] | cell count (SkMel28) [%] | cell count (SkMel2) [%] | cell count (SkMel30) [%] | cell count (SkMel5) [%] | cell count (UACC257) [%] | cell count (UACC62) [%] |
| --- | --- | --- | --- | --- | --- | --- | --- | --- | --- | --- |
| C[C@@H](N)c1ccc(C(=O)Nc2ccnc3[nH]ccc23)cc1 + O=C(CCCCCCC(=O)Nc1ccccc1)NO [vorinostat] (partner dose 0.08 µM) | 80.1 | 67.5 | 78.6 | 74.4 | 49.5 | 95.5 | 147 | 59.5 | 57.5 | 63.9 |
| C[C@@H](N)c1ccc(C(=O)Nc2ccnc3[nH]ccc23)cc1 + CNC(=O)c1cc(Oc2ccc(NC(=O)Nc3ccc(Cl)c(C(F)(F)F)c3)cc2)ccn1 [sorafenib] (partner dose 0.4 µM) | 64.8 | 86.7 | 73.6 | 68.8 | 86.8 | 98.2 | 90.3 | – | – | 102 |
| CCCCCCCCCCCCCCCCCCOP(=O)([O-])OC1CC[N+](C)(C)CC1 [Perifosine] + CCN(CC)CCCCNc1ncc2cc(-c3cc(OC)cc(OC)c3)c(NC(=O)NC(C)(C)C)nc2n1 [PD173074] (partner dose 0.1 µM) | 108 | 101 | 103 | 122 | 88.1 | 104 | 127 | 111 | 93.9 | 95.7 |
| C[C@@H](N)c1ccc(C(=O)Nc2ccnc3[nH]ccc23)cc1 + O=C(Nc1ccccc1)c1cc([N+](=O)[O-])ccc1Cl [GW9662] (partner dose 2 µM) | 83.5 | 80.7 | 87.6 | 126 | 84.8 | 109 | 126 | 85.4 | 83.3 | 81.3 |
| Cn1sc(=O)n(Cc2ccccc2)c1=O + Cn1cncc1[C@@](N)(c1ccc(Cl)cc1)c1ccc2c(c1)c(-c1cccc(Cl)c1)cc(=O)n2C [tipifarnib] (partner dose 0.01 µM) | 96 | 107 | 89.8 | 91.6 | 91.1 | 82.4 | 96.2 | 98.6 | 83.4 | 74.5 |
| C[C@@H](N)c1ccc(C(=O)Nc2ccnc3[nH]ccc23)cc1 + O=C(O)c1ccc(-c2c[nH]c3ncc(-c4ccccc4)cc23)cc1C1CCCC1 [GSK650394] (partner dose 0.16 µM) | 90.1 | 54.3 | 89.2 | 103 | 86.7 | 103 | 107 | 81.6 | 87.3 | 88.4 |
| CCCCCCCCCCCCCCCCCCOP(=O)([O-])OC1CC[N+](C)(C)CC1 [Perifosine] + OCCn1cc(-c2cnc3nnn(Cc4ccc5ncccc5c4)c3n2)cn1 [PF04217903] (partner dose 1 µM) | 63.9 | 96.8 | 34.5 | 98.3 | 76.9 | 85.4 | 78.3 | 91.6 | 107 | 83.6 |
| C[C@@H](N)c1ccc(C(=O)Nc2ccnc3[nH]ccc23)cc1 + CC(=O)O[C@@]12CO[C@@H]1C[C@H](O)[C@@]1(C)C(=O)[C@H](O)C3=C(C)[C@@H](OC(=O)[C@H](O)[C@@H](NC(=O)OC(C)(C)C)c4ccccc4)C[C@@](O)([C@@H](OC(=O)c4ccccc4)[C@H]21)C3(C)C [Docetaxel] (partner dose 0.0001 µM) | 47 | 48.7 | 38.6 | 41.3 | 34.2 | 43.6 | 45.6 | – | – | 34 |
| CCCCCCCCCCCCCCCCCCOP(=O)([O-])OC1CC[N+](C)(C)CC1 [Perifosine] + c1cc(-c2cnn3cc(-c4ccc(OCCN5CCCCC5)cc4)cnc23)ccn1 [Dorsomorphin] (partner dose 0.4 µM) | 96.5 | 89.4 | 51.1 | 89.3 | 107 | 105 | 114 | 91.2 | 87.9 | 88 |
| C[C@@H](N)c1ccc(C(=O)Nc2ccnc3[nH]ccc23)cc1 + COc1ccc(-c2ccc3c(N4CCOCC4)nc(N4C[C@@H](C)O[C@@H](C)C4)nc3n2)cc1CO [KU0063794] (partner dose 0.02 µM) | 73.2 | 73.6 | 64.2 | 83.3 | 87.3 | 104 | 106 | 81.9 | 84 | 60.9 |
| Cn1sc(=O)n(Cc2ccccc2)c1=O + CC1(C)NC(=O)N(c2ccc([N+](=O)[O-])c(C(F)(F)F)c2)C1=O [nilutamide] (partner dose 1 µM) | 103 | 99.5 | 91.6 | 77.8 | 81.4 | 102 | 103 | 107 | 92.3 | 89.5 |
| CCCCCCCCCCCCCCCCCCOP(=O)([O-])OC1CC[N+](C)(C)CC1 [Perifosine] + Oc1cc(-c2nc(-c3ccccc3)[nH]c2-c2ccncc2)ccc1Cl [L779450] (partner dose 0.2 µM) | 79.1 | 111 | 54.2 | 74.2 | 79.5 | 97.9 | 97.4 | 107 | 96.5 | 68.9 |
| Cn1sc(=O)n(Cc2ccccc2)c1=O + O=C(O)c1ccc(-c2c[nH]c3ncc(-c4ccccc4)cc23)cc1C1CCCC1 [GSK650394] (partner dose 0.16 µM) | 101 | 93.7 | 95.9 | 95.9 | 92.5 | 90.9 | 93.6 | 96.3 | 87.6 | 101 |
| Cn1sc(=O)n(Cc2ccccc2)c1=O + O=C(O)C(=O)Nc1sc2c(c1C(=O)O)CCNC2 [TCS401] (partner dose 1.66667 µM) | 99.4 | 101 | 83.5 | 114 | 101 | 99.7 | 99 | 99.3 | 101 | 79.8 |
| CCCCCCCCCCCCCCCCCCOP(=O)([O-])OC1CC[N+](C)(C)CC1 [Perifosine] + O=C(Nc1cccc(Cl)c1)Nc1ncc(CCNc2ncnc3ccsc23)s1 [SNS314] (partner dose 0.0008 µM) | 104 | 100 | 60.4 | 89.6 | 90.1 | 105 | 92.3 | 91 | 85.1 | 84.2 |
| Cn1sc(=O)n(Cc2ccccc2)c1=O + N#Cc1c(O)c2c(-c3ccc(-c4ccccc4O)cc3)csc2[nH]c1=O [A769662] (partner dose 2 µM) | 103 | 101 | 107 | 81.2 | 101 | 95.4 | 99.2 | 95.7 | 82.9 | 90.9 |
| C[C@@H](N)c1ccc(C(=O)Nc2ccnc3[nH]ccc23)cc1 + Cn1cc(/C=C2\C(=O)Nc3cccnc32)c2ccccc21 [GW441756] (partner dose 0.4 µM) | 74.2 | 72.9 | 78.4 | 73.7 | 68.2 | 103 | 111 | 32.3 | 53.8 | 71 |
| Cn1sc(=O)n(Cc2ccccc2)c1=O + COc1cc2ncnc(Nc3ccc(Oc4ccccc4)cc3)c2cc1OC [SrcI1] (partner dose 2 µM) | 89.1 | 97.9 | 85 | 96.7 | 90.1 | 107 | 102 | 102 | 116 | 93.4 |
| Cn1sc(=O)n(Cc2ccccc2)c1=O + O=C(Nc1cccc(Cl)c1)Nc1ncc(CCNc2ncnc3ccsc23)s1 [SNS314] (partner dose 0.0008 µM) | 106 | 100 | 98.3 | 101 | 88.4 | 112 | 110 | 89.8 | 97.5 | 82.5 |
| Cn1sc(=O)n(Cc2ccccc2)c1=O + O=C1NC(=O)/C(=C/c2ccc(-c3ccc(F)cc3O)o2)S1 [AS252424] (partner dose 1 µM) | 98 | 89 | 95.1 | 100 | 90 | 91.3 | 100 | 105 | 92.1 | 85.1 |
| C[C@@H](N)c1ccc(C(=O)Nc2ccnc3[nH]ccc23)cc1 + Cc1cc([N+](=O)[O-])ccc1NS(=O)(=O)c1cc(Cl)ccc1Cl [FH535] (partner dose 1 µM) | 68.6 | 90.8 | 64.7 | 66.6 | 74 | 85.3 | 112 | 88 | 67.5 | 89.7 |
| C[C@@H](N)c1ccc(C(=O)Nc2ccnc3[nH]ccc23)cc1 + CN(C)S(=O)(=O)c1ccc2c(c1)/C(=C/c1cc3c([nH]1)CCCC3)C(=O)N2 [SU6656] (partner dose 0.4 µM) | 87.2 | 78 | 66.8 | 65.1 | 90.1 | 97.7 | 147 | 85.5 | 69.6 | 69.2 |
| CCCCCCCCCCCCCCCCCCOP(=O)([O-])OC1CC[N+](C)(C)CC1 [Perifosine] + C=CCn1c(=O)c2cnc(Nc3ccc(N4CCN(C)CC4)cc3)nc2n1-c1cccc(C(C)(C)O)n1 [MK1775] (partner dose 0.02 µM) | 100 | 94.2 | 40.7 | 70.8 | 95 | 90.3 | 75.2 | 76.4 | 80.9 | 78 |
| Cn1sc(=O)n(Cc2ccccc2)c1=O + CCN(CC)CCCCNc1ncc2cc(-c3cc(OC)cc(OC)c3)c(NC(=O)NC(C)(C)C)nc2n1 [PD173074] (partner dose 0.1 µM) | 106 | 102 | 100 | 91 | 106 | 103 | 116 | 102 | 115 | 89 |
| Cn1sc(=O)n(Cc2ccccc2)c1=O + COc1ccc(-c2ccc3c(N4CCOCC4)nc(N4C[C@@H](C)O[C@@H](C)C4)nc3n2)cc1CO [KU0063794] (partner dose 0.02 µM) | 92.2 | 94.2 | 77 | 140 | 109 | 99.5 | 103 | 113 | 101 | 89.3 |
| Cn1sc(=O)n(Cc2ccccc2)c1=O + Cc1ccc(NC(=O)c2cccc(N(C)C)c2)cc1NC(=O)c1ccc(O)cc1 [ZM336372] (partner dose 2 µM) | 87.5 | 89 | 95.2 | 93.5 | 85.6 | 114 | 74.8 | 90.5 | 83.3 | 93.3 |
| Cn1sc(=O)n(Cc2ccccc2)c1=O + C[C@@H]1CCN(C(=O)CC#N)C[C@@H]1N(C)c1ncnc2[nH]ccc12 [CP690550] (partner dose 1 µM) | 112 | 91.7 | 98.7 | 118 | 86 | 101 | 102 | 120 | 118 | 93.6 |
